Source: the supplement of paper PMC3334620
The full ranking holds about 33,000 sequences; the median of “E-score (-0.5 to 0.5)” is about -0.035, and the highest 2% start at about 0.35. Some of the results follow.

Target: T1, Pdr3 (UniProt P33200)
T1 sequence: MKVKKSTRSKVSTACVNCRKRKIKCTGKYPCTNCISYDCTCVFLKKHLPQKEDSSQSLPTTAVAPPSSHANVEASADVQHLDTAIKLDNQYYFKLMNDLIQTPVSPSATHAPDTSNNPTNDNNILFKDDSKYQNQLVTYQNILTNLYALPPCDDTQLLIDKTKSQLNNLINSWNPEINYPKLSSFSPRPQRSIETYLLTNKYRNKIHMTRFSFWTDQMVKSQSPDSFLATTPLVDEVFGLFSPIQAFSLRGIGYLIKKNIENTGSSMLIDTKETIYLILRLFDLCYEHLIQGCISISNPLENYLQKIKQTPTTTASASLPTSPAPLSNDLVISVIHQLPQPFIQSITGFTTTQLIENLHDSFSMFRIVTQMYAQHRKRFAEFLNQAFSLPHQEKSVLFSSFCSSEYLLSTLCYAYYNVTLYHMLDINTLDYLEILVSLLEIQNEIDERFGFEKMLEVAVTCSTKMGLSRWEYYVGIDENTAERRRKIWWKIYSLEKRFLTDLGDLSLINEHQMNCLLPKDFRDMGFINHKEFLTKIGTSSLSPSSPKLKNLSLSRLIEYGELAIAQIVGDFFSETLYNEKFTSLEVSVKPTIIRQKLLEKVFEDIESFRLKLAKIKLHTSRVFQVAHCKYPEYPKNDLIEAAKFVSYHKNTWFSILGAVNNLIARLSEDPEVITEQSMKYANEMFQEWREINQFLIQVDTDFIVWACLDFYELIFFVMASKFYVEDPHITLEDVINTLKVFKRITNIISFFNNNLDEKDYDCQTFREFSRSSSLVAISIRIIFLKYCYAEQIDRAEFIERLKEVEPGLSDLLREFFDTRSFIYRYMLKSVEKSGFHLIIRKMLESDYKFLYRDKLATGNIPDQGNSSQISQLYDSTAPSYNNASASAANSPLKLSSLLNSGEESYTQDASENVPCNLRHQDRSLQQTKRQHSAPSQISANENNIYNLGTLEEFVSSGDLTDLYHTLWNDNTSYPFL
Test: PBM E-score (8-mer binding enrichment) (E-score (-0.5 to 0.5)); higher = stronger / more preferred TF binding; most listed sequences are background and not binding sites
Conditions: protein concentration: 200 nM; construct: GST-full length
Procedure, shortened: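 Yeast transcription factors carrying a GST tag, as full-length proteins or DNA-binding domains, were produced by PURExpress in vitro transcription/translation. About 100-200 nM protein was applied to universal all-10-mer Agilent arrays, double-stranded by primer extension on fresh or once-stripped slides. Bound protein was detected with fluorescent anti-GST, and scans were normalised with masliner. The Universal PBM Analysis Suite gave each ungapped eight-base word, pooled with its reverse complement, an E-score, a modified Wilcoxon-Mann-Whitney statistic.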

Sequence | PBM E-score
ATTCTGCC | 0.209
CAGAGACC | -0.09
AATAGAAG | -0.0729
TAGCAGGA | -0.0867
AAGTTCTG | -0.0867
ACGAGTTG | -0.0912
ACGCGTTA | -0.0884
GTTTATCA | 0.231
AGAGACTG | -0.161
AGTTAGAT | -0.212
ATCACCGC | -0.0267
ACCGAGCA | 0.154
ACTCGCCA | -0.14
GGAATGCA | 0.259
GCTGGGGA | -0.226
CTCGCACA | 0.0857
CTGACAGC | -0.0252
GCATTACA | 0.0468
CAAAAACC | 0.0333
AACTAAGT | -0.0156
CCCTGCAG | 0.129
CCTTCACG | -0.0977
GGCCAAGA | -0.176
CGTGAGAG | -0.186
CCAAAGTC | -0.201

Sequence | PBM E-score
ATGTGTCC | 0.175
GGCTGGAA | -0.0461
CGTTTTGC | -0.154
ACCTACAT | -0.0815
CGCAAGAG | 0.0334
GGGGCTAC | -0.0937
ACGGTACT | 0.166
GGATAGAC | -0.0752
AACATGAT | -0.0409
CACGAACC | -0.0685
AAGCGATC | 0.0113
TAATCCTA | -0.166
AAACACAC | -0.00581
AAAACCCG | 0.319
CTATTCAC | 0.0948
AAGAGTGT | -0.108
CAAGAAGA | -0.0691
GGGTTAGA | -0.044
CATCAACG | 0.174
ACATCACT | -0.0719
GATAGGAC | -0.246
ACGACATG | -0.0929
TGGTACCA | 0.174
CAGCAATC | -0.145
AGCCCAAT | -0.194

Sequence | PBM E-score
CCACTGGG | -0.104
CCTTTGTA | -0.22
AGGCAATC | -0.157
ACTTTTCA | -0.209
GTCGGCAC | 0.0801
ACGAATGC | -0.158
AAGTACGT | 0.0103
CGGGATCA | 0.344
ATCGCTTG | -0.221
TATGGAAA | 0.127
CGGACATC | 0.319
CGCCGAAA | 0.188
CGCGGACC | 0.437
AGTGGATC | 0.206
ATATGGCG | 0.0995
GGTCAAGA | -0.197
CAGGGTAA | -0.101
CCTACTAG | -0.221
CAGGATCA | -0.0271
AGCACACG | -0.219
AAAATAAC | -0.13
CACGTGAA | -0.0583
GGCTACTA | -0.0598
CTCGATGC | -0.0716
GCCGAGAC | 0.16

Sequence | PBM E-score
CACTCCGC | 0.243
GCACTCCA | -0.0427
ACTTTCAG | -0.184
CATATCTC | -0.00388
ACGATCAT | -0.0852
GGTACGAC | -0.12
CATCCCAA | -0.0143
CAGACAGA | -0.0799
CATCTTGG | -0.0743
CATCGGCA | 0.123
AGTGATAT | 0.0166
CGAAGTAC | 0.107
GAAGGGGC | -0.256
TGAGAACA | -0.162
GGATTACA | -0.0427
ACACACAC | -0.191
CGAGAATA | 0.0747
ACTTATAG | -0.0963
AAGCGAGT | 0.198
ATTAAAAG | -0.0236
ATAAAGAC | -0.171
ATCCGCTC | 0.307
AAACGCGA | -0.0544
GTCGCGTA | -0.118
ATCGCCAT | 0.105

Sequence | PBM E-score
AGGTGCAA | -0.0808
GTCGAGAA | -0.173
GGAAATCA | 0.195
CCCCAAAG | -0.181
ATGGACAG | -0.129
ATATCTCC | 0.216
GTGAAGAA | -0.0697
AGGGCGGG | 0.25
AGACCAAT | -0.0713
TACTTGAA | -0.203
GCAGTACA | -0.206
CAACGAAG | -0.188
AAGGCCAG | -0.0965
AGCGTACT | -0.119
CTACCAAG | -0.0913
ATATGTTG | -0.0438
CCGTCCGA | 0.232
ACACGTCC | -0.0777
CATTGACG | -0.138
CCGTAGCA | -0.0556
GAACGAAA | -0.035
AGGTTAAC | -0.107
CCAGTGGG | -0.0745
GGTACTTA | -0.0528
ATAGAGTC | -0.0137

Sequence | PBM E-score
ACCTTTGC | -0.146
AAATCGCT | -0.0798
CAGTAGCC | -0.204
AAGATCGC | -0.0622
CCGGGAAG | 0.359
AGAGTATG | -0.141
CGATACAG | -0.0304
CCAATTTC | 0.202
CGACAACG | 0.113
AACTGCGG | 0.258
ATTAACGA | 0.0706
AATAGAGG | -0.0999
CCGCCGAG | 0.326
ATCTTACG | 0.00222
AAGTTTGG | -0.0671
CTGGAGGC | -0.0557
AGTTTATC | 0.0974
CTTTGCCA | -0.108
ATTGCGGC | 0.0253
ATTATCTG | 0.0253
ACCGCAAA | -0.0146
ATTCGGGA | 0.185
CCATCGTA | -0.0764
AATTCTTA | -0.0202
CCCGGGAA | 0.443

Sequence | PBM E-score
GACAGACA | 0.221
AACATGTC | 0.00625
CAGTCCTA | -0.243
CAGCGATG | -0.0711
GAGTTGAC | 0.0303
GAGCCAAC | -0.189
ACCGGACT | 0.285
AACTAGGC | -0.16
CGCTTCCG | 0.419
AGTTCCCG | 0.299
AGCAAGAA | -0.0735
GGGTTTGA | -0.0398
ATTTCGGA | 0.327
GTGTGTCA | -0.0981
GGACACGA | 0.0948
CATCAGAA | -0.165
GAAACCCC | 0.0513
AGGGCTGC | 0.0386
TACACTAA | -0.177
ACATCACG | -0.233
ACCGCCCC | 0.148
ATGAGATG | -0.0139
